# In PubChem BioAssay AID488969 (Vanderbilt High Throughput Screening Facility, 2010):
# Over roughly 110,000 compounds, “z-score” has its median near -0.1; the highest 2% begin near 2. The list shows a part of the results. The source made the active and inactive calls.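 The calls were made as follows: active = z-score in the third read window above 3 or below -3; inactive = the rest.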
# Biological target: Metabotropic glutamate receptor 8 (Rattus norvegicus) (UniProt P70579)
# Assay: mGluR8 Gi/Go-coupled signaling modulation – cell-based, rat, thallium flux, HTS, primary screen (AID 488969)
# Details: HEK293 rat mGluR8, GIRK (G protein-gated inwardly rectifying potassium channel) thallium flux, FluoZin2; at 10 µM; stronger effect = higher value; submaximal glutamate (EC20) added with thallium
# Sequence of UniProt P70579 (P70579 whole entry, looked up): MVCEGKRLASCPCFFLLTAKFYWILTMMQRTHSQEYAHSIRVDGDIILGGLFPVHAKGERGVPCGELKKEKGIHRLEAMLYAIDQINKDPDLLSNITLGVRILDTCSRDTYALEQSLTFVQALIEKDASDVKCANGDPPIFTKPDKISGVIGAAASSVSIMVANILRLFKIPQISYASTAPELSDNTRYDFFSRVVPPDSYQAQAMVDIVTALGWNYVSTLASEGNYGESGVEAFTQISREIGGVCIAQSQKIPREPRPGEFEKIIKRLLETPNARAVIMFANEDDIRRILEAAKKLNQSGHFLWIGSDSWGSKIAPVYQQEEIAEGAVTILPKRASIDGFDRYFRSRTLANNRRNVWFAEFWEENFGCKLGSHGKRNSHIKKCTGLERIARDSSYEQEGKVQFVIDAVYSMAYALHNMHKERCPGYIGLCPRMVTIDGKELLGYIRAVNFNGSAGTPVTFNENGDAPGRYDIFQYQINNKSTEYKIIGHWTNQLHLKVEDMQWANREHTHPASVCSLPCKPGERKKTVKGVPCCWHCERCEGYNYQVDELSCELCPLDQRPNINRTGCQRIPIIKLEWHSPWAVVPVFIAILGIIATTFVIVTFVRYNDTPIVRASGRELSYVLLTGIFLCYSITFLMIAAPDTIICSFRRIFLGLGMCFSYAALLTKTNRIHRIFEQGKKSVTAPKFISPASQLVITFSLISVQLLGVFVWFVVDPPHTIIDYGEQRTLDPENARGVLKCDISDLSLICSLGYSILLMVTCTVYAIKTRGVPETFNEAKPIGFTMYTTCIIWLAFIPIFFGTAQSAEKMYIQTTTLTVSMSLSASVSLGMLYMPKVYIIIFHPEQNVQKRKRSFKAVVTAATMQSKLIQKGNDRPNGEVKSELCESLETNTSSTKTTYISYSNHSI
row,Structure (SMILES),z-score
1,CCCCn1c(SCC(=O)OC)nc2c1c(=O)n(C)c(=O)n2C,-0.0927
2,COc1ccc(N2CCN(C(=O)CCn3nnc4ccccc43)CC2)cc1,-0.0252
3,CCN(CC)C(=O)CSc1nc2ncccc2[nH]1,1.1
4,O=C(NC(=S)Nc1ccccc1)c1cc(-c2ccccc2)nc2ccccc12,active: 9.35
5,COc1ccc(/C=N/Nc2ccccc2)cc1Cn1nc(C)c([N+](=O)[O-])c1C,-0.405
6,COc1ccc(OC)c(/C=N/NC(=O)CCc2ccc(O)c(O)c2)c1,-0.298
7,O=C1c2sc3nc4n(c(=O)c3c2CCC1Br)CCCCC4 (stereo not drawn),0.732
8,O=C(Nc1ccc2c(c1)OCO2)C(c1ccc(Cl)cc1)N1CCN(C(=O)c2ccco2)CC1 (stereo not drawn),-0.396
9,O=C(c1ccccc1F)N1CCN(S(=O)(=O)c2ccc3c(c2)OCCO3)CC1,-0.0609
10,Nn1cnc2c([nH]c3ccccc32)c1=O,-0.365
11,Cc1ccccc1OCc1nc(-c2ccc(Br)o2)no1,0.521
12,O=C1CN(C(=O)c2ccco2)c2ccccc2N1,-0.372
13,O=C1C2C3C=CC(C3)C2C(=O)N1CN(Cc1ccccc1)CN1C(=O)C2C3C=CC(C3)C2C1=O (stereo not drawn),0.0355
14,O=C(COC(=O)CCCSc1nc2ccccc2[nH]1)Nc1ccc(Oc2ccccc2)cc1,-0.0806
15,CCOCC(=O)Nc1cccc(OC)c1,0.0272
16,CCCCC1CC1C(=O)Nc1ncc2c(n1)CC(C)(C)CC2=O (stereo not drawn),-0.185
17,CCOc1ccc(N(CC(=O)NC2CCCCCC2)S(=O)(=O)c2c(C)noc2C)cc1,0.0414
18,COc1ccccc1NS(=O)(=O)c1cccc(NC(=O)c2nc3nc(C)cc(C)n3n2)c1,-0.0384
19,CCOC(=O)c1ccccc1NC(=O)Cn1cnc2c(cnn2C(C)(C)C)c1=O,-0.521
20,O=S1(=O)C[C@@H](O)[C@@H](Nc2ccc(Cl)cc2)C1,-0.343
21,O=S(=O)(c1ccc(-c2csc(Nc3ccc(F)cc3)n2)cc1)N1CCCC1,-0.314
22,COc1ccccc1CNC(=O)c1cc2c(C)nn(Cc3ccc(F)cc3)c2s1,-0.149

row,Structure (SMILES),z-score
1,Cc1ccc(S(=O)(=O)Cn2nnnc2C(C(C)C)N2CCN(c3nc4ccccc4s3)CC2)cc1 (stereo not drawn),0.142
2,CCOc1ccc(S(=O)(=O)NC(C)(C)C)cc1-c1nc2c(C(C)(C)C)nn(C)c2c(=O)[nH]1,-0.387
3,CC(C)=C1SC(N2CCCCC2)=NC1=O,1.93
4,COc1ccc(CN2CCN(C(=O)c3cc(OC)c(OC)c(OC)c3)CC2)cc1OC,-0.587
5,O=C1CC(Sc2nnc(-c3ccccc3)o2)C(=O)N1c1ccccc1 (stereo not drawn),-0.0347
6,COc1ccc(C(c2nnnn2Cc2ccccc2)N2CCN(C(=O)c3ccco3)CC2)cc1OC (stereo not drawn),-0.161
7,CC(NC(=O)c1cn(C)c2ccc(S(=O)(=O)N3CCCC3)cc2c1=O)c1ccc2c(c1)OCCO2 (stereo not drawn),-0.479
8,COc1ccc(CC(=O)OCC(=O)Nc2ncc(Cl)cc2Cl)cc1OC,-0.239
9,Cc1ccc(NC(=O)c2ccc(OC(=O)COc3cccc(Cl)c3)cc2)cc1,-0.283
10,COC(=O)c1ccc(NC(=O)CN2CCCC2)cc1,-0.186
11,Cc1ccc(S(=O)(=O)Nc2c(C)nn(C)c2C)cc1,-0.0387
12,CCOc1ccc(-n2c(=O)cc(N3CCN(c4ccc(F)cc4)CC3)[nH]c2=O)cc1,0.293
13,O=C(O)CCC(=O)NC1CCCCC1,-0.0259
14,Cc1ccc2cc(C(c3nnnn3C3CCCC3)N3CCN(c4ccccc4)CC3)c(=O)[nH]c2c1 (stereo not drawn),-0.225
15,CC(C)(C)c1nc2ccccc2c2nnc(SCC(=O)Nc3nccs3)n12,-0.153
16,COc1ccccc1NC(=O)/C(C#N)=C/C=C/c1ccco1,-0.162
17,O=C(c1nc2nc(-c3ccccc3)cc(C(F)(F)F)n2n1)N1CCOCC1,-0.175
18,COc1ccc(OC)c(NC(=O)CC2SC(=Nc3ccc(F)cc3)N(CCC3=CCCCC3)C2=O)c1 (stereo not drawn),0.0161
19,Cc1cc(C)c(C(=O)Nc2ccc(S(=O)(=O)Nc3onc(C)c3C)cc2)c(C)c1,0.0864
20,COc1ccc(NC(=O)CSc2nnc(-c3ccccn3)n2Cc2ccco2)cc1OC,active: 5.76
21,Cc1cc(C)c(OCC(=O)OCCNC(=O)c2cccnc2)c(C)c1,-0.105
22,COc1ccc(OC)c(-c2cc(C(=O)N3CCN(c4ccccc4)CC3)no2)c1,0.014

row,Structure (SMILES),z-score
1,NC(=O)C1CCN(C(=O)c2ccc(C(F)(F)F)cc2)CC1,-0.111
2,COc1cc(C)c(S(=O)(=O)N2CCN=C2c2ccccc2)cc1C,-0.0711
3,Nn1c(COc2ccccc2)nc2ccccc2c1=O,-0.368
4,Brc1ccccc1Cn1c(-c2cscn2)nc2ccccc21,-0.656
5,Cc1ccc(S(=O)(=O)N2CCC(C(=O)N[C@H](C(=O)NCc3ccco3)C(C)C)CC2)cc1,-0.0498
6,CC(O)c1nc2ccccc2n1Cc1nnc(-c2ccc(Cl)cc2)o1 (stereo not drawn),-0.51
7,Cc1ccc(NC(=O)CN(C)C(=O)/C=C/c2cccs2)cc1,-0.137
8,CN1C(=O)/C(=C2/C=Cc3ccccc3N2CCCS(=O)(=O)O)SC1=S,1.32
9,CCOC(=O)c1cnc2sccn2c1=O,-0.0404
10,COc1ccc(C2CC(=O)c3cnc(N4CCN(Cc5ccccc5)CC4)nc3C2)cc1 (stereo not drawn),-0.543
11,COC(=O)c1c(NC(=O)CC2SC(N)=NC2=O)sc2c1CCC(C)C2 (stereo not drawn),-0.0667
12,CCOC(=O)C(C(=O)NCC1CCCO1)C1CCCCC1 (stereo not drawn),0.0731
13,Cc1ccc(S(=O)(=O)n2ccnc2)cc1C,0.438
14,Cc1ccc(NC(=O)CCC(=O)c2cccs2)cc1,0.186
15,O=C(/C=C/c1ccc(S(=O)(=O)N2CCOCC2)cc1)NCc1ccccc1Cl,0.0451
16,Cc1ccc(NC(=S)NC(NC(=O)c2ccccc2)C(Cl)(Cl)Cl)c(C)c1 (stereo not drawn),0.0523
17,Cc1[nH]n(-c2ccccc2)c(=O)c1C=Nc1cnc2ccccc2c1,0.416
18,O=C(NCc1ccc(Cl)cc1)c1ccc(Cl)cc1[N+](=O)[O-],-0.393
19,COc1cccc(C2C(C(=O)OCc3ccccc3)=C(C)Nc3ncnn32)c1OC (stereo not drawn),-0.854
20,Cn1nnnc1SCC(=O)NCc1ccco1,0.275
21,O=C(CSc1ccccc1)Nc1ccccc1N1CCOCC1,-0.457
22,OCCN(CCO)CC(O)Cn1c2ccccc2c2ccccc21 (stereo not drawn),-0.258

row,Structure (SMILES),z-score
1,O=C(NC(=S)N1CCCCCC1)C1CC1,0.000532
2,COc1ccc(OC)c(NC(=O)Cn2c(=O)n(CC(=O)NCc3ccco3)c(=O)c3ccccc32)c1,-0.0938
3,COc1cc(S(=O)(=O)N2CCCCC2)ccc1NC=O,-0.951
4,c1ccc(-c2ccc(Oc3cc(N4CCOCC4)nc(-c4ccccc4)n3)cc2)cc1,-0.145
5,CCOC(=O)c1ccc(CC(=O)c2ccc(O)cc2O)o1,-0.000648
6,Cn1c(C(=O)N2CCCC(C(=O)N3CCN(C(=O)c4ccco4)CC3)C2)cc2sccc21 (stereo not drawn),-0.103
7,Cc1ccc(NC(=O)CNc2ccc(OC(C)C)cc2)cc1,0.0604
8,COc1ccc(/C=C/C(=O)Oc2cccc(/C=N/NC(=O)c3cccc(F)c3)c2)cc1,-0.0588
9,CN1c2ccccc2C(C)(C)C12CC(CCl)=NO2 (stereo not drawn),-0.182
10,CC(C(=O)OCC(=O)c1cccc([N+](=O)[O-])c1)N1C(=O)C2C3CCC(C3)C2C1=O (stereo not drawn),0.027
11,Cc1ccc(N2C(=O)CC(Sc3ccccc3C(=O)O)C2=O)cc1 (stereo not drawn),-0.218
12,O=C(c1ccco1)N1CCN(S(=O)(=O)c2cccs2)CC1,0.337
13,O=c1c(Cl)c(Nc2cccc(Cl)c2)cnn1-c1nc2ccccc2s1,-0.287
14,N/C(=N\OC(=O)c1cccs1)c1ccccc1,-0.0144
15,COc1cccc(C2=CC(c3ccc(N(C)C)cc3)n3nnnc3N2)c1 (stereo not drawn),-1.05
16,CCOC(=O)CC(=O)CSc1nc(-c2cccnc2)cc(C)c1C#N,-0.14
17,CCOC(=O)N1CCN(S(=O)(=O)c2ccc(OC)c(OC)c2)CC1,0.0307
18,Cc1nn(-c2ccccc2)c(N2CCCC2)c1/C=N/NC(=S)Nc1cc(C(F)(F)F)ccc1Cl,0.394
19,O=C(CCC(=O)Nc1ccccc1)NNC(=O)C(c1ccccc1)c1ccccc1,0.336
20,O=C(Nc1ccc(N=Nc2ccccc2)c(NC(=O)C2CCCO2)c1)C1CCCO1 (stereo not drawn),-0.264
21,CCOCC(=O)Nc1cccc(NC(C)=O)c1,-0.0753
22,O=c1[nH]c(SCc2ccc(F)cc2)nc2c1cnn2-c1ccc(F)cc1,0.203

row,Structure (SMILES),z-score
1,Cc1c(C(=O)NCCCN2CCOCC2)sc2nc(-c3ccc(F)cc3)cn12,-0.691
2,CCN(CC)S(=O)(=O)c1cc(C(=O)n2cccn2)c(Cl)cc1Cl,-2.33
3,CCOC(=O)c1ccc(N2C(=O)c3n[nH]c(C)c3C2c2ccccn2)cc1 (stereo not drawn),-0.296
4,c1ccc(Cn2c(Nn3cnnc3)nc3ccccc32)cc1,-0.451
5,CC(=O)SCCC(=O)Nc1ccccc1,0.0793
6,CC(=O)Nc1ccc(NC(=O)Cn2c(-c3ccc(F)cc3)cnc2SCC(=O)Nc2c(C)cccc2C)cc1,-0.103
7,COc1ccc(NC(=O)C(C)SCc2ccccc2)cc1OC (stereo not drawn),5.74e-05
8,Cc1nc(SCC(=O)c2cccs2)c2oc3ccccc3c2n1,0.397
9,CCC1(C)Cc2c(C#N)c(N)n(-c3ccccc3)c(=O)c2CO1 (stereo not drawn),0.181
10,Cc1cc(C)nc(/N=C(/NC(=O)c2ccccc2)Nc2ccccc2)n1,-0.181
11,CCOC(=O)N1CCN(C(=O)C2CCCN(S(=O)(=O)c3ccccc3)C2)CC1 (stereo not drawn),0.145
12,Cc1ccc(C(=O)NNC(=O)Cc2ccccc2)cc1,0.357
13,COC(=O)c1ccc(OC)c(CSc2nnc(-c3ccc(C(C)(C)C)cc3)o2)c1,-0.0694
14,COc1ccc(-c2ccc(OC)cc2C(=O)O)cc1,-0.165
15,CC(C)(C)c1cc(NC(=O)COC(=O)c2ccc3c(=O)n4c(nc3c2)CCC4)n(-c2ccccc2)n1,-0.264
16,Cc1cccc(OCC(=O)Nc2cc(C)ccc2O)c1,-0.0375
17,Cn1c(=O)[nH]c(=O)c2c1nc(SCCN1CCCCC1)n2Cc1ccccc1,0.113
18,CCC(c1nnc(SCC(=O)N2CC3(C)CC2CC(C)(C)C3)o1)N(C)C (stereo not drawn),-0.157
19,CCOC(=O)C1CCCN(Cc2ccc(OCC)cc2)C1 (stereo not drawn),-0.133
20,CC(=O)NC(CCS(C)(=O)=O)C(=O)Nc1cc(C)on1 (stereo not drawn),-0.111
